Among all 48,000 compounds or so, about 550 (1.1%) were called active. About 4% were inconclusive and are not listed. Cut-off read from the data, not from the text of the source: active = potency below about 15 µM; inconclusive = mostly about 16 µM to 33 µM; inactive = weaker than that. Some of the results follow.
The compounds below were run against Lysosomal acid glucosylceramidase (Homo sapiens) (UniProt P04062) (assay: Glucocerebrosidase). Conditions: purified enzyme, resorufin glucoside fluorescence (screen aimed at inhibitors), 20 min.
Sequence of UniProt P04062 (P04062 whole entry, looked up): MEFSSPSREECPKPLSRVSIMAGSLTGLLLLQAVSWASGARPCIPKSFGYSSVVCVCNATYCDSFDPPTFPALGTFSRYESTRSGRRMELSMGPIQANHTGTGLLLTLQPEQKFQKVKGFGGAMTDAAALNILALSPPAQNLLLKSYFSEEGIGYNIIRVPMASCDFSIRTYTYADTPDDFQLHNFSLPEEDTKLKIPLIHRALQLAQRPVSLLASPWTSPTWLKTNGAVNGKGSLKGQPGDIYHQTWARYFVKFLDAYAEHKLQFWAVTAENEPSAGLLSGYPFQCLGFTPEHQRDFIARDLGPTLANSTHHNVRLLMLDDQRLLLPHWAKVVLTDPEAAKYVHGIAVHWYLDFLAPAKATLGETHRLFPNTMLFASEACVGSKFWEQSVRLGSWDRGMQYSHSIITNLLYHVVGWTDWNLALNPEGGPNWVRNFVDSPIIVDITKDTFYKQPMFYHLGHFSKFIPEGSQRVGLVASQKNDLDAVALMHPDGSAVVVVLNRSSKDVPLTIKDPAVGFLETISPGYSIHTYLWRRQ
How it was run: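 Wild-type enzyme at 0.2 nM final in 50mM citric acid/KH2PO4, 10mM sodium taurocholate, 0.01% tween-20, pH 5.9, with resorufin beta-D-glucopyranoside at 30 uM final. Compounds titrated, 20 min at RT, red fluorescence read; AC50 from titration.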
With COc1ccc(S(=O)(=O)NCc2ccco2)c2ccccc12 the Potency was inactive: > 76.9 µM. For COc1ccc(NC(=O)Cc2nnc(SCC(=O)Nc3cc(C)ccc3OC)n2C)cc1, the Potency was inactive: > 76.9 µM. CCOc1cc2[nH]c(=O)n(CCCCCC(=O)NCc3ccc4c(c3)OCO4)c(=O)c2cc1OCC was tested, and the Potency was inactive: > 76.9 µM. For CSC1=C(C#N)C(c2ccccc2Cl)C2=C(CCCC2=O)N1 (configuration not stated), the Potency was inactive: > 76.9 µM. CCOCc1cnc(C)nc1NCC(=O)c1c(C)n(C)c2ccc(OC)cc12 was tested, and the Potency was inactive: > 76.9 µM. In the case of O=C(NCC(=O)N(c1cccc(F)c1)C(C(=O)NCC1CCCO1)c1ccccc1)c1ccco1 (configuration not stated), the Potency is reported as inactive: > 76.9 µM. In the case of CC(C)Cc1cc(C(=O)O)n[nH]1, the Potency is reported as inactive: > 76.9 µM. For COC(=O)COc1ccc(S(=O)(=O)NC2CCCCCC2)cc1, the Potency was inactive: > 76.9 µM. For CC(C)C[C@H](NC(=O)Nc1cccc(Cl)c1)C(=O)O, the Potency was inactive: > 76.9 µM. With COc1ccc(C2C3=C(CC(C)(C)CC3=O)Oc3ncn4nc(-c5cccnc5)nc4c32)cc1OC (configuration not stated) the Potency was inactive: > 76.9 µM. In the case of O=C(OCC(=O)c1c[nH]c2ccccc12)c1ccco1, the Potency is reported as inactive: > 76.9 µM. With COC(=O)c1cc(OC)c(OC)cc1NC(=O)c1c(C)noc1C the Potency was inactive: > 76.9 µM. For COc1ccc(CC(=O)Nc2c3c(nn2-c2cccc(C)c2C)CS(=O)C3)cc1 (configuration not stated), the Potency was inactive: > 76.9 µM. With COc1ccc2[nH]c(=O)c(CN(Cc3ccc4c(c3)OCO4)C(C)=O)cc2c1 the Potency was inactive: > 76.9 µM. For CC(C)(C)c1csc(NC2=NS(=O)(=O)c3ccccc32)n1, the Potency was inactive: > 76.9 µM. In the case of COc1ccc(OC)c(NC(=O)COC(=O)c2ccc(-n3cnnn3)cc2)c1, the Potency is reported as inactive: > 76.9 µM. In the case of Cc1cccc(NC(=O)c2cccs2)n1, the Potency is reported as inactive: > 76.9 µM. In the case of CCOC(=O)C1CCCN(C(=O)CCn2nc(-c3ccccc3)ccc2=O)C1 (configuration not stated), the Potency is reported as inactive: > 76.9 µM. For O=S(=O)(Nc1cc(Cl)ccc1N1CCCCC1)c1cccs1, the Potency was active: 15.4 µM. With O=C(CSc1nnc(Cc2cc(=O)[nH]c(=O)[nH]2)n1-c1ccccc1)N1CCCC1 the Potency was inactive: > 76.9 µM. For COC(=O)CSc1nnc2n1C(C)(C)Cc1ccccc1-2, the Potency was inactive: > 76.9 µM. In the case of O=S(=O)(c1cccs1)N1CCN(C/C=C/c2ccccc2)CC1, the Potency is reported as inactive: > 76.9 µM. For O=C(Nc1nnc(COc2ccc(Cl)cc2)s1)c1cccs1, the Potency was inactive: > 76.9 µM. With O=C(Cn1c(CC(=O)N2CCOCC2)nc2ccccc21)Nc1ccc2c(c1)OC(F)(F)O2 the Potency was inactive: > 76.9 µM. With CCCCNC(=O)Nc1ccon1 the Potency was inactive: > 76.9 µM. For COc1cc(NS(=O)(=O)c2ccc(NC(=O)COc3ccccc3C)cc2)nc(OC)n1, the Potency was inactive: > 76.9 µM. In the case of O=C(COc1ccccc1)Nc1ncc2c(n1)CCCC2=O, the Potency is reported as inactive: > 76.9 µM. In the case of CC1CN(C(=O)CN2C(=O)c3ccccc3S2(=O)=O)CC(C)O1 (configuration not stated), the Potency is reported as inactive: > 76.9 µM. Cc1cc(Cl)ccc1OCC(=O)OC(C)C(=O)NC(N)=O (configuration not stated) was tested, and the Potency was inactive: > 76.9 µM. With CCn1c(CCNC(=O)c2cccs2)nnc1SCC(=O)c1ccc(OC)cc1 the Potency was inactive: > 76.9 µM. With Cc1csc(SCC(=O)O)n1 the Potency was inactive: > 76.9 µM. COc1ccc(CCN2C(=O)c3cccnc3C2=O)cc1OC was tested, and the Potency was inactive: > 76.9 µM. In the case of CC1=Nn2c(nc(-c3ccccc3)c2-c2ccccc2)N(CC(N)=O)C(=O)C1, the Potency is reported as inactive: > 76.9 µM. For Cc1cc(NC(=O)CCOc2ccccc2)no1, the Potency was inactive: > 76.9 µM. CCN(CC)C(=O)c1ccc(C)c(Br)c1 was tested, and the Potency was inactive: > 76.9 µM. In the case of Cc1c(N2C(=O)c3ccccc3C2=O)c(=O)n(-c2ccccc2)n1C, the Potency is reported as inactive: > 76.9 µM. N#Cc1cnn(-c2ccccc2)c1N was tested, and the Potency was inactive: > 76.9 µM. With CCN(CC)c1ccc(NC(=O)Nc2ccc(C(C)=O)cc2)cc1 the Potency was inactive: > 76.9 µM. Cc1ccc(C2SCC(=O)N2Cc2cn3ccsc3n2)o1 (configuration not stated) was tested, and the Potency was inactive: > 76.9 µM. In the case of CCOC(=O)N1CCC(NC(=O)Cn2ncn3c(cc4sc(CC)cc43)c2=O)CC1, the Potency is reported as inactive: > 76.9 µM. CN1CCN(c2ccc(NC(=O)Cc3ccccc3)cc2)CC1 was tested, and the Potency was inactive: > 76.9 µM. CCOC(=O)c1sc(=N)n(-c2ccc(OC)cc2)c1C was tested, and the Potency was inactive: > 76.9 µM. For CC(=O)c1oc2ccccc2c1NC(=O)COC(=O)c1ccc(-n2nc(C)cc2C)cc1, the Potency was inactive: > 76.9 µM. With CCn1c(SCC(=O)NCCc2ccc(F)cc2)nnc1-c1cccs1 the Potency was inactive: > 76.9 µM. COC(=O)Nc1ccc(S(=O)(=O)N2CCCc3ccccc32)cc1 was tested, and the Potency was inactive: > 76.9 µM. With COc1ccc(-c2cc(=O)oc3c(C)c(OCc4nn[nH]n4)ccc23)cc1 the Potency was inactive: > 76.9 µM. For CNc1oc(Cc2ccccc2)nc1S(=O)(=O)c1ccc(Cl)cc1, the Potency was inactive: > 76.9 µM. In the case of COc1cccc(C2=NOC(C(=O)Nc3cccnc3)C2)c1 (configuration not stated), the Potency is reported as inactive: > 76.9 µM. Cc1cc(N)ccc1-n1c(C)ccc1C was tested, and the Potency was inactive: > 76.9 µM. CC(=O)OCc1cc(=O)n(C)c(=O)n1C was tested, and the Potency was inactive: > 76.9 µM. In the case of COCCCNC(=O)CCn1c(=O)c2ccccc2n(CC(=O)Nc2c(C)cccc2C)c1=O, the Potency is reported as inactive: > 76.9 µM. In the case of Cn1c(SCC(=O)N2CCCc3ccccc32)nnc1-c1ccco1, the Potency is reported as inactive: > 76.9 µM. For Cc1ccc(S(=O)(=O)NC(CC(=O)NCc2ccco2)c2ccco2)cc1 (configuration not stated), the Potency was inactive: > 76.9 µM. O=C(CN1C(=O)C2CC=CCC2C1=O)OCCN1C(=O)c2ccccc2C1=O (configuration not stated) was tested, and the Potency was inactive: > 76.9 µM. In the case of Cc1cccc(NC(=O)Nc2cccc(C)n2)n1, the Potency is reported as inactive: > 76.9 µM. COc1ccc(-c2nc(-c3ccc(NC(=O)c4ccc(Br)o4)cc3)no2)cc1OC was tested, and the Potency was inactive: > 76.9 µM. With COc1ccc(N(CC(=O)O)S(=O)(=O)c2cccnc2)cc1 the Potency was inactive: > 76.9 µM. With O=C(NCc1nnc(SC/C=C/c2ccccc2)o1)c1ccco1 the Potency was inactive: > 76.9 µM. For Cc1ccccc1-n1c(=O)c2ccccc2n2c(=O)[nH]nc12, the Potency was inactive: > 76.9 µM. With COc1ccc(S(=O)(=O)N2CCC(C(=O)N3CCCCCC3)CC2)cc1 the Potency was inactive: > 76.9 µM. O=C(O)c1ccc2cccc(Cl)c2c1O was tested, and the Potency was inactive: > 76.9 µM. In the case of O=C(c1ccc(=O)oc1)N1CCCc2ccccc21, the Potency is reported as inactive: > 76.9 µM. In the case of CCN(CC)c1ccc(NC(=O)Nc2cccc(C(C)=O)c2)cc1, the Potency is reported as inactive: > 76.9 µM. With CCCN1Cc2cccc(C(=O)Nc3ccc4c(c3)OCO4)c2C1=O the Potency was inactive: > 76.9 µM. In the case of COc1cc(C(=O)Nc2cnc(NC(=O)C(C)C)cc2C)cc(OC)c1OC, the Potency is reported as inactive: > 76.9 µM. Cc1ccc(C)n1-c1ccncc1 was tested, and the Potency was inactive: > 76.9 µM. With O=c1oc2ccccc2n1CCn1c2ccccc2c2nc3ccccc3nc21 the Potency was inactive: > 76.9 µM. Cc1ccc(SCc2cc(=O)[nH]c(N3CCOCC3)n2)cc1 was tested, and the Potency was inactive: > 76.9 µM. COc1cccc(NC(=O)C2C3C=CC4(O3)C2C(=O)N(C2CC2)C4C(=O)NC2CCCCC2C)c1 (configuration not stated) was tested, and the Potency was inactive: > 76.9 µM. For CCc1nn(CC(=O)NCCCN(Cc2ccccc2)C(C)C)c(=O)c2cc3sccc3n12, the Potency was inactive: > 76.9 µM. With CC(=O)NCCOc1nc(N(C)C)nc(N(C)C)n1 the Potency was inactive: > 76.9 µM. In the case of O=C(O)c1cccc(Cn2cc(Cl)cn2)c1, the Potency is reported as inactive: > 76.9 µM. For C=CCNC(=O)C(C)Sc1ccc(Cl)cc1 (configuration not stated), the Potency was inactive: > 76.9 µM. For CCCCC(=O)Nc1ccc(N2CCN(S(C)(=O)=O)CC2)cc1, the Potency was inactive: > 76.9 µM. For S=c1[nH]nc(Cc2ccccc2)n1-c1ccccc1, the Potency was inactive: > 76.9 µM. With O=C(NCc1cccs1)C(Cc1ccccc1)NS(=O)(=O)c1cccs1 (configuration not stated) the Potency was inactive: > 76.9 µM. With COc1cc(C(Nc2ccc3c(c2)OCO3)C(=O)NC2CCCCC2)cc(OC)c1OC (configuration not stated) the Potency was inactive: > 76.9 µM. With CC(C)CCNc1ncnc2c1nnn2Cc1ccccc1Cl the Potency was inactive: > 76.9 µM. COCCn1c(=O)[nH]c2cc(C(=O)NCC3CCCO3)ccc2c1=O (configuration not stated) was tested, and the Potency was “inactive”. For Cc1ccc2c(c1)cc(CN(Cc1ccc3c(c1)OCO3)C(=O)c1cnccn1)c1nnnn12, the Potency was inactive: > 76.9 µM. In the case of COc1cc2c(cc1OC)CN(S(=O)(=O)c1ccc3c(c1)OCCO3)CC2, the Potency is reported as inactive: > 76.9 µM. CCCSc1nc2c(c(=O)[nH]c(=O)n2C)n1C was tested, and the Potency was inactive: > 76.9 µM. With O=C(CSc1nc(O)c(Cc2ccccc2F)c(=O)[nH]1)N1CCCCCC1 the Potency was inactive: > 76.9 µM. For Cc1cc(S(=O)(=O)Nc2ccccc2C)ccc1F, the Potency was inactive: > 76.9 µM. For C=CCn1cc(Cl)c(=O)n(CC=C)c1=O, the Potency was inactive: > 76.9 µM. For CCOc1ccc(OCC)c(C2C(C#N)=C(N)N(c3cccnc3)C3=C2C(=O)CC(C)(C)C3)c1 (configuration not stated), the Potency was inactive: > 76.9 µM. With Cc1nn(-c2ccccc2)c(C)c1C(=O)OCC(=O)N1CCN(S(=O)(=O)c2ccccc2)CC1 the Potency was inactive: > 76.9 µM. For O=C(c1coc2ccc(O)c(CN3CCOCC3)c12)C1CC1, the Potency was inactive: > 76.9 µM. For COc1cc2nc(SCC(N)=O)n(CCC3=CCCCC3)c(=O)c2cc1OC, the Potency was inactive: > 76.9 µM. With CCOC(=O)C1CCN(S(=O)(=O)c2ccc(Br)c(OCC)c2)CC1 the Potency was inactive: > 76.9 µM. For C=CCOC(=O)N1CCN(c2cccc(C(F)(F)F)c2)CC1, the Potency was inactive: > 76.9 µM. With CN1CCN(C(=O)c2ccc(-c3nn(C)c(=O)c4ccccc34)cc2)CC1 the Potency was inactive: > 76.9 µM.

Source: PubChem BioAssay AID360 (National Center for Advancing Translational Sciences (NCATS), 2006)
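Note: the screen sought inhibitors.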
Potency is the fitted concentration of half-maximal effect.
